In all, about 33,000 sequences were measured (“E-score (-0.5 to 0.5)”: median about -0.016, highest 2% from about 0.32 on). The list shows a part of the results.
molecular target: T1, Stp1 (UniProt B3LFK1); test: PBM E-score (8-mer binding enrichment) (E-score (-0.5 to 0.5)); higher = stronger / more preferred TF binding; most listed sequences are background and not binding sites; conditions: protein concentration: 200 nM; construct: GST-full length
T1 sequence: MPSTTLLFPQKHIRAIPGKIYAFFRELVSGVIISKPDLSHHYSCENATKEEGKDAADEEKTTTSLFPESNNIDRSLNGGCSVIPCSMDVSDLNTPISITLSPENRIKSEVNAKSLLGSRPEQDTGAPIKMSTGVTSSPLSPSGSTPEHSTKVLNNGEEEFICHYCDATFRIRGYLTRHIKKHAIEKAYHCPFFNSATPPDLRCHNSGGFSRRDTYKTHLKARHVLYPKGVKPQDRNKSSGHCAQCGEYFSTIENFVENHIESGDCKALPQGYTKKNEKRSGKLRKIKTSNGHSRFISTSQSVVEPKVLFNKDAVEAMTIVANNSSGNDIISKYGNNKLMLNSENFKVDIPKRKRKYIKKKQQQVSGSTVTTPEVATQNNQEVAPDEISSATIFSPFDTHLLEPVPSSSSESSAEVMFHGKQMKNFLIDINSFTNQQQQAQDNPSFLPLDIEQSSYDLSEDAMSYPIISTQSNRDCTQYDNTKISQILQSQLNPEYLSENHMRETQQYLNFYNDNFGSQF
Summary of the method: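 Masliner-normalised scans of fluorescent anti-GST signal were the basis for scoring. That signal came from GST-tagged yeast transcription factors applied at about 100-200 nM to double-stranded universal all-10-mer Agilent arrays on fresh or once-stripped slides. Each ungapped eight-base word, pooled with its reverse complement, received an E-score from the Universal PBM Analysis Suite.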

Row | Sequence | PBM E-score
1 | CCAAGCCC | -0.241
2 | CAGTAACA | -0.139
3 | GTTGCGGA | 0.00249
4 | TTGATCAA | 0.149
5 | ACGGACGA | 0.0876
6 | CCGCAGTC | 0.0955
7 | CCTTACAG | 0.0881
8 | ACGAATCC | 0.102
9 | TACAACCA | 0.151
10 | CTTTTATA | 0.0395
11 | AGCTCTCC | -0.242
12 | AGAGAGCC | 0.148
13 | TAACCTGA | -0.131
14 | ATGTTTTA | 0.132
15 | AGCATCTG | -0.0786
16 | CAATTTTC | 0.0158
17 | AGATCCTC | -0.251
18 | CTATCGTA | 0.0458
19 | ACCATGAG | -0.195
20 | ACACCACG | 0.0166
21 | CAATGAAC | 0.0426
22 | CCTTATCC | -0.0848

Row | Sequence | PBM E-score
23 | ACGAGCAA | -0.24
24 | CCCCCTGA | -0.338
25 | CAAAATGA | 0.182
26 | GTGGTATA | 0.0163
27 | ATTATGGC | 0.0101
28 | AACATAAT | 0.214
29 | AAGAAACT | -0.0398
30 | CGATCCCA | -0.0852
31 | ATCTGTTA | 0.0856
32 | AGGGGGCA | -0.252
33 | ACAATTCC | -0.0617
34 | ACAACGAA | 0.0704
35 | ACTCGCGA | 0.168
36 | GACGCGCC | 0.348
37 | AGCAGCAG | -0.0457
38 | CGACCACA | -0.215
39 | CGCCGAAG | 0.13
40 | ACCACTGG | -0.151
41 | ACTGCAAT | 0.0998
42 | GCCCAGGC | -0.209
43 | AGGGCTTG | -0.0291
44 | CAAGCTAC | -0.171

Row | Sequence | PBM E-score
45 | CGGGATAG | -0.0247
46 | GCCAGACC | -0.0926
47 | CTACGGAG | -0.0394
48 | CGTTGGGA | -0.0414
49 | GACAGTAA | 0.0631
50 | TGAATAAA | 0.225
51 | ATGAAGGG | -0.177
52 | ATGCGCCC | 0.158
53 | AGCTGGAG | -0.237
54 | ATCGTTTA | 0.213
55 | CACGTTAG | 0.0297
56 | CTACGTCA | -0.204
57 | CTGGCAGA | 0.0447
58 | ACGAGTCT | -0.301
59 | CACCAATC | 0.0442
60 | CCGTGTCG | 0.285
61 | ACAGAGCC | 0.0316
62 | ATCACGGA | -0.0235
63 | GTCAACTA | 0.0182
64 | ACAGCGGT | -0.0982
65 | GGCGTTAA | 0.283
66 | TATCATCA | 0.191

Row | Sequence | PBM E-score
67 | CCCCTATA | -0.241
68 | AATACGCG | 0.203
69 | AATGTCGG | 0.0531
70 | ACTCGATA | 0.152
71 | CATCGAAA | 0.141
72 | CAGGCCAA | -0.233
73 | AGAGCGCG | 0.1
74 | CCCTATTA | -0.0216
75 | ACAGGGTG | -0.32
76 | ATCTCAAC | 0.0719
77 | AATGACCC | -0.289
78 | AGTTAACT | 0.2
79 | CATGTCAA | -0.0416
80 | CCAAAGCG | 0.0506
81 | ATATTGGG | -0.2
82 | GAATCAGC | -0.0687
83 | CGCCGTAA | 0.418
84 | GCGTTTAC | -0.082
85 | CTTTGCTA | -0.0117
86 | TCCCCTCA | -0.106

Reference: the supplement of paper PMC3334620
